Data taken from US20240124575A1 (SIMCERE ZAIMING PHARMACEUTICAL, published 2024).

Legend:
[1] = target: T1, human CD33 on U937 cells (endogenous) (human, UniProt P20138); test: FACS, U937 cells
T1 construct: whole, on cells

human CD33-V-his = target: T2, human CD33-V-his (human, UniProt P20138 18-144); test: ELISA on coated human CD33-V-his
T2 construct: expressed in HEK293E; also called hCD33-V-his; human CD33 protein V-domain; not shown: His tag

[2] = target: T3, human CD33-His (extracellular domain Asp 18-His 259) (human, UniProt P20138 18-259); test: ELISA, antigen coated
T3 construct: range 18-259; bought protein; also called hCD33-his; human CD33 protein; not shown: His tag

[3] = target: T4, human CD33 on CHO-K1 cells (CHO-K1-human CD33) (human, UniProt P20138); test: FACS, CHO-K1-human CD33 cells
T4 construct: whole, on cells; stably transfected CHO-K1 clones; also called CHO-K1-hCD33-B8; CHO-K1-human CD33 B8

human CD33-His = target: T5, human CD33-His (human, UniProt P20138 18-259); test: SPR (Biacore), antibody captured on Protein A chip, human CD33-his as analyte
T5 construct: range 18-259; Bought protein; also called human CD33-his protein; hCD33-his; not shown: His tag

monkey CD33 protein [4] = target: T6, monkey CD33 protein (monkey); test: ELISA, coated monkey CD33, antibody 0.01 nM
T6 construct: The printed catalogue numbers for murine and monkey CD33 may be interchanged; also called monkey CD33-His protein

monkey CD33 protein [5] = target: T6, monkey CD33 protein; test: ELISA, coated monkey CD33, antibody 10 nM
monkey CD33 protein [6] = target: T6, monkey CD33 protein; test: SPR (Biacore), antibody captured on Protein A chip, monkey CD33 protein as analyte
murine CD33 protein [7] = target: T7, murine CD33 protein (murine, UniProt Q63994 18-240, limits assumed); test: ELISA, coated murine CD33, antibody 1 nM
T7 construct: The printed catalogue numbers for murine and monkey CD33 may be interchanged; also called murine CD33-His protein
T7 sequence (looked up): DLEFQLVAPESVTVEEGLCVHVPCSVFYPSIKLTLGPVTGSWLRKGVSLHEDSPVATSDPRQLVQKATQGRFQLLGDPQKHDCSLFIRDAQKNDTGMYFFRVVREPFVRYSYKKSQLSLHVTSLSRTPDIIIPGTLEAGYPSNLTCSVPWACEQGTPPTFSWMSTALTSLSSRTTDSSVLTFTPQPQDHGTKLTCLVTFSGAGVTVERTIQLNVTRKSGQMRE

[8] = target: T8, monkey CD33 on HEK293T-monkey CD33 cells (monkey); test: FACS on HEK293T-monkey CD33 cells
T8 construct: whole, on cells

monkey CD33 protein [9] = target: T6, monkey CD33 protein; test: ELISA, coated monkey CD33, antibody 1 nM
murine CD33 protein [10] = target: T7, murine CD33 protein; test: ELISA, coated murine CD33, antibody 0.1 nM
murine CD33 protein [11] = target: T7, murine CD33 protein; test: ELISA, coated murine CD33, antibody 100 nM
murine CD33 protein [12] = target: T7, murine CD33 protein; test: ELISA, coated murine CD33, antibody 0.01 nM
monkey CD33 protein [13] = target: T6, monkey CD33 protein; test: ELISA, coated monkey CD33, antibody 100 nM
murine CD33 protein [14] = target: T7, murine CD33 protein; test: ELISA, coated murine CD33, antibody 0.0001 nM
monkey CD33 protein [15] = target: T6, monkey CD33 protein; test: ELISA, coated monkey CD33, antibody 0.0001 nM
murine CD33 protein [16] = target: T7, murine CD33 protein; test: ELISA, coated murine CD33, antibody 10 nM
monkey CD33 protein [17] = target: T6, monkey CD33 protein; test: ELISA, coated monkey CD33, antibody 0.1 nM
monkey CD33 protein [18] = target: T6, monkey CD33 protein; test: ELISA, coated monkey CD33, antibody 0.001 nM
murine CD33 protein [19] = target: T7, murine CD33 protein; test: ELISA, coated murine CD33, antibody 0.001 nM

Chain of human CD33-V-his (P20138 other isoform, or with tags, fused parts or gaps limits assumed): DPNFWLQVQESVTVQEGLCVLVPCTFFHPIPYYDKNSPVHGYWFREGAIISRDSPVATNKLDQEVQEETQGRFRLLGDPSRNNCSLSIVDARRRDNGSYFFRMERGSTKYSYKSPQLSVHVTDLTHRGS
Chain of human CD33-His (P20138 18-259 limits assumed): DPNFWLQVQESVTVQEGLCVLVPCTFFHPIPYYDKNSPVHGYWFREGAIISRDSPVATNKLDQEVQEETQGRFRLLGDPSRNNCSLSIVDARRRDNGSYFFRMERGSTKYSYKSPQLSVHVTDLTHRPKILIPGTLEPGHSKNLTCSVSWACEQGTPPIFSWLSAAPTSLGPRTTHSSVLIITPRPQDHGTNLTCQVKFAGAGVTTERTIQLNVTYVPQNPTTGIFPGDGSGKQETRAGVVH

B1: S006-NB147-25 (Fc fusion)
chain: QLQLVESGGGLVQAGGSLRLSCKASGVTFSINALGWYRQAPGKQREMVAVISSGGSTNYVDSVKGRFTISRDNAKNTVYLQMNSLKPEDTAVYYCNADVVGSSWSPEYDYWGQGTQVTVST[letters of human IgG1 Fc with changes left out]
notes: also called VHH-Fc
[1]
  EC50: ~18.5 nM
  Max MFI: 234 MFI
Human CD33-V-his
  binding result: no binding (tested: 100 nM)
[2]
  OD450 at 0.0001 nM: 0.05 OD450
  OD450 at 0.001 nM: 0.06 OD450
  OD450 at 0.01 nM: 0.19 OD450
  OD450 at 0.1 nM: 0.73 OD450
  OD450 at 1 nM: 1.87 OD450
  OD450 at 10 nM: 2.18 OD450
  OD450 at 100 nM: 2.35 OD450
[3]
  EC50: 49.9 nM
  Max MFI: 9780 MFI

B2: S006-NB146-173 (Fc fusion)
chain: QVQLVESGGGLVQAGGSLRLSCAASGSTLSLHSMGWYRQAAGRQRELVAGISRDGDSNYLSSLAGRFFISRDGTKNTVYLQMTSLKPEDTAVYYCNARTSPWSAALWGQGTQVTVSS[letters of human IgG1 Fc with changes left out]
notes: also called VHH-Fc
[1]
  EC50: 30.9 nM
  Max MFI: 575 MFI
Human CD33-V-his
  binding result: no binding (tested: 100 nM)
[2]
  OD450 at 0.0001 nM: 0.06 OD450
  OD450 at 0.001 nM: 0.09 OD450
  OD450 at 0.01 nM: 0.43 OD450
  OD450 at 0.1 nM: 0.91 OD450
  OD450 at 1 nM: 2.13 OD450
  OD450 at 10 nM: 2.21 OD450
  OD450 at 100 nM: 2.25 OD450
[3]
  EC50: 28.1 nM
  Max MFI: 11400 MFI

B3: S006-NB146-173 (Fc fusion)
chain: QVQLVESGGGLVQAGGSLRLSCAASGSTLSLHSMGWYRQAAGRQRELVAGISRDGDSNYLSSLAGRFFISRDGTKNTVYLQMTSLKPEDTAVYYCNARTSPWSAALWGQGTQVTVSS[letters of human IgG1 Fc with changes left out]
Human CD33-His
  Kd: 23.8 nM
  koff: 0.00172 s⁻¹
  kon: 72500 M⁻¹ s⁻¹
Monkey CD33 protein [4]
  OD450: 0.91 OD450
Monkey CD33 protein [5]
  OD450: 2.5 OD450
Monkey CD33 protein [6]
  Kd: 27.4 nM
  koff: 0.00424 s⁻¹
  kon: 155000 M⁻¹ s⁻¹
Murine CD33 protein [7]
  OD450: 0.13 OD450
[8]
  EC50: 39.4 nM
  Max MFI: 5080 MFI
Monkey CD33 protein [9]
  OD450: 2.15 OD450
Murine CD33 protein [10]
  OD450: 0.07 OD450
Murine CD33 protein [11]
  OD450: 0.94 OD450
Murine CD33 protein [12]
  OD450: 0.06 OD450
Monkey CD33 protein [13]
  OD450: 2.49 OD450
Murine CD33 protein [14]
  OD450: 0.06 OD450
Monkey CD33 protein [15]
  OD450: 0.07 OD450
Murine CD33 protein [16]
  OD450: 0.46 OD450
Monkey CD33 protein [17]
  OD450: 1.6 OD450
Monkey CD33 protein [18]
  OD450: 0.17 OD450
Murine CD33 protein [19]
  OD450: 0.06 OD450

B4: S006-NB146-69 (Fc fusion)
chain: EVQVVESGGGLVQAGGSLSLSCAASGSIFTINIMGWYRQAPGKQRELVAQINRVGDTNYPNSMAERFTISRDNAKNTMYLQMNTLKPEDTAVYYCNADIVESGRYSGKDYWGKGTLVTVSL[letters of human IgG1 Fc with changes left out]
notes: also called VHH-Fc
[1]
  EC50: ~22.7 nM
  Max MFI: 301 MFI
Human CD33-V-his
  binding result: no binding (tested: 100 nM)
[2]
  OD450 at 0.0001 nM: 0.05 OD450
  OD450 at 0.001 nM: 0.09 OD450
  OD450 at 0.01 nM: 0.3 OD450
  OD450 at 0.1 nM: 0.5 OD450
  OD450 at 1 nM: 2.06 OD450
  OD450 at 10 nM: 1.92 OD450
  OD450 at 100 nM: 1.84 OD450
[3]
  EC50: 96.5 nM
  Max MFI: 5950 MFI

B5: S006-NB147-220 (Fc fusion)
chain: QLQLVESGGGMVQPGGSLRLSCAASGFTLDYYAIGWFRQAPGKEREGVSCINSGDSSTYYADSVKGRFTISRDNAENTVYLQMNSLKPEDTAVYYCATVDTLIVAGNLEECRYDMDYWGKGTLVTVSS[letters of human IgG1 Fc with changes left out]
notes: also called VHH-Fc
[1]
  EC50: 8.6 nM
  Max MFI: 394 MFI
Human CD33-V-his
  binding result: no binding (tested: 100 nM)
[2]
  OD450 at 0.0001 nM: 0.04 OD450
  OD450 at 0.001 nM: 0.06 OD450
  OD450 at 0.01 nM: 0.17 OD450
  OD450 at 0.1 nM: 0.46 OD450
  OD450 at 1 nM: 1.86 OD450
  OD450 at 10 nM: 1.92 OD450
  OD450 at 100 nM: 2.17 OD450
[3]
  EC50: 52 nM
  Max MFI: 10000 MFI

B6: S006-NB146-139 (Fc fusion)
chain: QLQLVESGGGLVQPGGSLRLSCAAPGIILDYYPIGWFRQAPGKEREGVSYITSSDDSTVYTYYTDSVKGRFTISRGKNTVYLQMNSLKPEDTAVYYCAARSTYIVGRNYHTLNSSDFDYWGQGTQVTVSS[letters of human IgG1 Fc with changes left out]
notes: also called VHH-Fc
[1]
  EC50: 25.6 nM
  Max MFI: 599 MFI
Human CD33-V-his
  binding result: no binding (tested: 100 nM)
[2]
  OD450 at 0.0001 nM: 0.04 OD450
  OD450 at 0.001 nM: 0.06 OD450
  OD450 at 0.01 nM: 0.14 OD450
  OD450 at 0.1 nM: 0.57 OD450
  OD450 at 1 nM: 1.39 OD450
  OD450 at 10 nM: 2.16 OD450
  OD450 at 100 nM: 1.95 OD450
[3]
  EC50: 14.6 nM
  Max MFI: 11900 MFI
